# According to paper PMC4336329 (PLoS ONE, 2015):
# Hit rate of the full screen: of about 310,000 compounds, about 2,200 (0.71%) showed an effect of 50% or more. Effects have a minus sign here. The list shows a part of the results.
# Target: human ether-à-go-go-related gene (hERG) potassium channel (human, UniProt Q12809)
# Test: primary screen, population patch clamp on CHO cells stably expressing hERG
# Sequence of human ether-à-go-go-related gene (hERG) potassium channel (Q12809 whole entry, looked up): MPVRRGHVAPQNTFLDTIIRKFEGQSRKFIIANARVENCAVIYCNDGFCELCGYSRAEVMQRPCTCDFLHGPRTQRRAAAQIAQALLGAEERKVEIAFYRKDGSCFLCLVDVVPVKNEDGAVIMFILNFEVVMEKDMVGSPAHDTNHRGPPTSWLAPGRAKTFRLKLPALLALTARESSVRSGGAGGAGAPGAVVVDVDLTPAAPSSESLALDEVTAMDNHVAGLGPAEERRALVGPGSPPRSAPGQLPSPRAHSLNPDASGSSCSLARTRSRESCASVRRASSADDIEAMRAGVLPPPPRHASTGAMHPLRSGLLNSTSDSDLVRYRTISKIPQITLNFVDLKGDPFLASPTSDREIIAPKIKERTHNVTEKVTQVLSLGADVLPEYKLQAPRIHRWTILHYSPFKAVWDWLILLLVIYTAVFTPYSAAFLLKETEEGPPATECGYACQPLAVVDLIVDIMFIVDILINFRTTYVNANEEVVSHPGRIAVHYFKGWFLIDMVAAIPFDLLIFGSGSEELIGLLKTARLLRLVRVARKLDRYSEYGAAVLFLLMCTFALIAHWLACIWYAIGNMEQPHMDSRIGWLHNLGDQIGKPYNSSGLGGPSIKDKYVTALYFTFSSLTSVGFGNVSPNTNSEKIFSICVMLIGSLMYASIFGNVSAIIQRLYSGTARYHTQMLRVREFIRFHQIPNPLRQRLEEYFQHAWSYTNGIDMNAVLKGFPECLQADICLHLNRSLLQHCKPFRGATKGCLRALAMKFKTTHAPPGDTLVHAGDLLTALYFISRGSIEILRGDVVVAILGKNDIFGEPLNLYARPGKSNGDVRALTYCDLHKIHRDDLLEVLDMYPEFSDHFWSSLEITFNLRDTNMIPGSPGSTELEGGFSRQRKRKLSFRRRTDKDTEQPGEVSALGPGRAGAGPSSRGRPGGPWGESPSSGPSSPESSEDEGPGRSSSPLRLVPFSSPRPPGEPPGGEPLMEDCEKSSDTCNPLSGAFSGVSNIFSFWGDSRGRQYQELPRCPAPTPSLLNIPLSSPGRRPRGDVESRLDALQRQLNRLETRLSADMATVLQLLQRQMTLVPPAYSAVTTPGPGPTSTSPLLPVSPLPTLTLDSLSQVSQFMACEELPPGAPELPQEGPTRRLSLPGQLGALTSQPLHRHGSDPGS
row,Compound,"hERG current change (%, negative = inhibition) at 1uM [%]"
1,CC(C)(Oc1ccc(Cl)cc1)C(=O)O/N=C(\N)c1ccncc1,5.96
2,COc1ccc(CN2CCN(C(=O)c3ccccc3F)CC2)c(OC)c1OC,12.1
3,CC(=O)Nc1ccc(NC(=O)C(C)OC(=O)C(C)SCC(=O)Nc2ccc(F)cc2)cc1 (centres unmarked),13.2
4,C=CCNc1cc(=O)n(Cc2ccccc2)c(=O)[nH]1,12.2
5,COc1cc2c(C#N)c(N3CCCC3)nc(N)c2c(N)n1,11.2
6,COc1ccc(N2CCN(C(=O)CN3C(=O)NC4(CCCCCC4)C3=O)CC2)cc1,10.7
7,O=C(COc1ccccc1)N1CCN(CC2CC3C=CC2C3)CC1.O=C(O)C(=O)O (centres unmarked),6.34
8,CCOc1ccc(N(CC(=O)Nc2nccs2)S(=O)(=O)c2c(C)[nH]c(=O)[nH]c2=O)cc1,14.6
9,CCN(CC)C(=S)Nc1ccc(OC)cc1,26
10,CCCN1CNC(=S)N(c2ccc(C)cc2C)C1,12.5
11,CCOC(=O)N/N=C(/C)c1ccc(N2C(=O)C3CCCCC3C2=O)cc1 (centres unmarked),5.01
12,CC(C)CCN(C(=S)Nc1cccc(F)c1)C1CCN(C(C)C)CC1,-7.78
13,CC(C)(C)OC(=O)N1CCN(C(=O)Cn2cc(CCO)nn2)CC1,27.7
14,O=C(Oc1ccccc1)c1ccc(-n2cnnn2)cc1,15.5
15,CN1CCN(C(=O)CSc2nc3c(c(=O)n(C)c(=O)n3C)n2C)CC1,11
16,COC(=O)CN(c1ccccc1F)S(=O)(=O)c1ccccc1,-3.91
17,CC(C)C(NC(=O)OCc1ccccc1)C(=O)NCc1ccc(C(=O)O)cc1 (centres unmarked),-3.16
18,Cc1ccc(C(=O)N2CCCC(N3CCN(c4cccc(C(F)(F)F)c4)CC3)C2)s1 (centres unmarked),0.145
19,Cc1ccc(NC(=O)c2cccc(C(=O)Nc3ccc(C)c(C)c3)n2)cc1C,5.55
20,CC1=C(C(=O)OCc2ccccc2)C(c2cccc(Cl)c2Cl)NC(=O)N1CCCCCC(=O)O (centres unmarked),8.61
21,COC1CCCCC1Nc1ccc(C)c(C)c1 (centres unmarked),2.22
22,COc1ccc(N(C)C(=O)c2cc3c(s2)-c2c(C)cccc2OC3)c(OC)c1,5.05
23,CN(/N=C/c1ccccc1)C(=S)c1ccccc1,12.1
24,Cc1csc2nc(CCNS(=O)(=O)c3cccs3)cn12,11
25,CCOC(=O)c1[nH]c2ccccc2c1NC(=O)COC,1.11
26,CC(C)=C(NC(=O)c1ccccc1Br)C(=O)NCCc1nc2ccccc2[nH]1,7.69
